In PMC10865702:
Results are given in words; binding and its absence hold for the method and conditions named. In cells and extracts the contact can be indirect. Some entries that bind do so weakly or less than the wild type. For some of these results: Where a sequence is shown, tags or fusion partners need not be part of it.

Amino acid sequences for entries named in this document (tags omitted).
UniProt P53350: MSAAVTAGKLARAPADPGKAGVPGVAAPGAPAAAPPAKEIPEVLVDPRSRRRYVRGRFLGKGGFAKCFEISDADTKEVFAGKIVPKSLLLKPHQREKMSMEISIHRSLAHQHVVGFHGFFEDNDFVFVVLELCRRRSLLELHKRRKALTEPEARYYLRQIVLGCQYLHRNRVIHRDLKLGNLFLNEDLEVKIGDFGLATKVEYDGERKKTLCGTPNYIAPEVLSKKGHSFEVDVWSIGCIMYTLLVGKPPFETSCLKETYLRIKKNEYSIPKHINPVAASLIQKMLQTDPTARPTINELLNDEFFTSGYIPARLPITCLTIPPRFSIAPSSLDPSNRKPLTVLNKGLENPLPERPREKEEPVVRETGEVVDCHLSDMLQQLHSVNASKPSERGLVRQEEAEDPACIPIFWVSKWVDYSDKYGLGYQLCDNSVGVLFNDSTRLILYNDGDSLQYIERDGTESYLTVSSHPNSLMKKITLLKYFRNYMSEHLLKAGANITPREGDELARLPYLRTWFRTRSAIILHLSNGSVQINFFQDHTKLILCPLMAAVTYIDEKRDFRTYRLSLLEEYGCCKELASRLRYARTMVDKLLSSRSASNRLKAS

Legend:
[1] = target: T1, GST-RhoGDI1 truncation mutant aa 68-89 (human) (UniProt P52565); assay: pull-down; GST-RhoGDI1 (wt or truncation mutants) or GST on GSH-beads, washed, incubated with His-PLK1 expression lysate (E. coli) at 4 °C overnight; immunoblot with PLK1 and GST antibodies; only the target purified
T1 sequence: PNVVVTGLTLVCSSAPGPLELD

[2] = target: T2, GST-RhoGDI1 truncation mutant aa 112-134 (human) (UniProt P52565); assay: as above
T2 sequence: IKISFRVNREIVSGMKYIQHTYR

[3] = target: T3, GST-fused wild-type RhoGDI1 (human) (UniProt P52565); assay: as above
T3 sequence: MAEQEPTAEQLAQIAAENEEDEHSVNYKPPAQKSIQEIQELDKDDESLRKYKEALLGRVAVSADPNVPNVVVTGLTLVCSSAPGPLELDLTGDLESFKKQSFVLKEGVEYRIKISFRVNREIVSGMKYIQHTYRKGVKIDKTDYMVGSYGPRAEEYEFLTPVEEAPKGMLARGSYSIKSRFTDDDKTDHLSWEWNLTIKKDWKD

[4] = target: T4, GST-RhoGDI1 truncation mutant aa 1-67 (human) (UniProt P52565); assay: as above
T4 sequence: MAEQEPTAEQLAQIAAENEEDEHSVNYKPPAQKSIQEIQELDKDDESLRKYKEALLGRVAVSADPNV

[5] = target: T5, GST-RhoGDI1 truncation mutant aa 90-111 (human); assay: as above
T5 sequence: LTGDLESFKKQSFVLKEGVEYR

[6] = target: T6, GST-RhoGDI1 truncation mutant aa 1-134 (human) (UniProt P52565); assay: as above
T6 sequence: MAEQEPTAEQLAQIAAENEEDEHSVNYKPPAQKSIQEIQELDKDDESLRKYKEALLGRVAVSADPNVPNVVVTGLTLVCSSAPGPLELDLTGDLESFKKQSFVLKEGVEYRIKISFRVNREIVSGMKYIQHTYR

[7] = target: T7, Flag-tagged RhoGDI1 (Rho guanine nucleotide dissociation inhibitor 1) (human) (UniProt P52565); assay: co-IP; 293T cells co-transfected; lysates in RIPA buffer; immunoprecipitated with anti-HA or anti-Flag at 4 °C overnight, agarose beads 2 h; immunoblot with HA, Flag or GFP antibodies
T7 sequence: T3 sequence

[8] = target: HA-tagged PLK1 (polo-like kinase 1) (human) (UniProt P53350); assay: as above
[9] = target: HA-tagged PLK1 (polo-like kinase 1) (human) (UniProt P53350); assay: co-IP; HeLa cells co-transfected with HA-PLK1 and Flag-RhoGDI1 or Flag-RhoGDI2; lysates immunoprecipitated with HA antibody; immunoblot with HA and Flag antibodies
[10] = target: endogenous PLK1 (human (endogenous in HeLa)) (UniProt P53350); assay: proximity ligation; PLK1 and RhoGDI1 antibodies in HeLa cells transfected with GFP-RhoGDI1 aa 90-111; PLA dots in GFP-positive against GFP-negative cells
[11] = target: endogenous PLK1 (human (endogenous in HeLa)) (UniProt P53350); assay: proximity ligation; Duolink In Situ Red kit, fixed HeLa cells, PLK1 and RhoGDI1 antibodies, confocal microscopy
[12] = target: endogenous PLK1 (human (endogenous in HeLa)) (UniProt P53350); assay: co-IP; HeLa lysates, endogenous proteins; immunoprecipitated with IgG (control) or PLK1 antibodies; immunoblot with PLK1 or RhoGDI1 antibodies

With “His-fused PLK1 (from UniProt P53350 1-603) (enzyme)” the binding [1] was “no binding”, the binding [2] was “no binding” and the binding [3] was “binds”. For the same molecule, the binding [4] was “no binding”, the binding [5] was “binds” and the binding [6] was “binds”.

For “HA-tagged PLK1 (polo-like kinase 1) (from UniProt P53350 1-603) (enzyme)”, the binding [7] was “binds”.

B1: Flag-tagged RhoGDI1 (Rho guanine nucleotide dissociation inhibitor 1) (protein, UniProt P52565-1 1-204)
chain: T3 sequence
For B1, the binding [8] was “binds” and the binding [9] was “binds”.

For LTGDLESFKKQSFVLKEGVEYR (domain or fragment) [GFP-tagged RhoGDI1 truncated mutant (aa 90-111)], the binding [8] was “binds” and the binding [10] was “binds”.

B2: endogenous RhoGDI1 (protein, UniProt P52565 1-204)
chain: T3 sequence
In the case of B2, the binding [11] is reported as “binds”, the binding [10] is reported as “binds” and the binding [12] is reported as “binds”.

B3: Flag-RhoGDI2 (protein, UniProt P52566 1-201)
chain: MTEKAPEPHVEEDDDDELDSKLNYKPPPQKSLKELQEMDKDDESLIKYKKTLLGDGPVVTDPKAPNVVVTRLTLVCESAPGPITMDLTGDLEALKKETIVLKEGSEYRVKIHFKVNRDIVSGLKYVQHTYRTGVKVDKATFMVGSYGPRPEEYEFLTPVEEAPKGMLARGTYHNKSFFTDDDKQDHLSWEWNLSIKKEWTE
B3 was tested, and the binding [8] was “no binding” and the binding [9] was “no binding”.
